According to the supplement of paper PMC9151546:
± gives the standard deviation of the averaged measurements. Most values come without repeats; read them as rough.

Key:
[1] = system: CHO-K1; assay: micronucleus frequency (% of nucleated events); higher = more micronuclei (genotoxic)
[2] = system: CHO-K1; assay: relative survival (nuclei to bead ratio vs DMSO control) (% of vehicle control); higher = more surviving cells
[3] = system: CHO-K1; assay: hypodiploid nuclei frequency (% of nucleated events); higher = more hypodiploid events (aneugenic)
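Wherever hypodiploid nuclei frequency (% of nucleated events) is given: hypodiploid nuclei gated on a flow cytometer with 488 nm excitation after SYTOX Green staining, cultures at 37 °C, positive controls vinblastine without S9 and cyclophosphamide with S9.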
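Wherever micronucleus frequency (% of nucleated events) is given: cells lysed with nuclei stained by SYTOX Green, then micronucleus-gated events counted against nucleated events by flow cytometry with 488 nm excitation.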
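Wherever relative survival (nuclei to bead ratio vs DMSO control) is given: Lysed-cell nuclei stained with SYTOX Green and counted against counting beads by flow cytometry at 488 nm excitation, with vinblastine (no S9) and cyclophosphamide (plus S9) as positive controls.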

Cc1ccc(S(=O)(=O)NC(=O)NN2CCCCCC2)cc1 [Tolazamide]
Details	hypodiploid nuclei frequency, [3] [%]	micronucleus frequency, [1] [%]	relative survival, [2]
concentration: 4.5 (µM), S9 metabolic activation: with S9, exposure time: 3-4 hours	0.21 ± 0.014	1.55 ± 0.014	86.6 ± 26
concentration: 4.5 (µM), S9 metabolic activation: without S9, exposure time: 24 hours	0.72	1.92	177
concentration: 5.63 (µM), S9 metabolic activation: with S9, exposure time: 3-4 hours	0.23 ± 0.13	2 ± 0.42	97.1 ± 30
concentration: 5.63 (µM), S9 metabolic activation: without S9, exposure time: 24 hours	0.7	1.88	153
concentration: 7.04 (µM), S9 metabolic activation: with S9, exposure time: 3-4 hours	0.19 ± 0.014	1.38	120 ± 24
concentration: 7.04 (µM), S9 metabolic activation: without S9, exposure time: 24 hours	0.56	1.88	166
concentration: 8.8 (µM), S9 metabolic activation: with S9, exposure time: 3-4 hours	0.22 ± 0.085	1.37 ± 0.13	116 ± 16
concentration: 8.8 (µM), S9 metabolic activation: without S9, exposure time: 24 hours	0.82	1.72	136
concentration: 11 (µM), S9 metabolic activation: with S9, exposure time: 3-4 hours	0.31 ± 0.13	1.38 ± 0.37	114 ± 39
concentration: 11 (µM), S9 metabolic activation: without S9, exposure time: 24 hours	0.68	1.4	102
concentration: 13.7 (µM), S9 metabolic activation: with S9, exposure time: 3-4 hours	0.19 ± 0.042	1.71 ± 0.21	138 ± 15
concentration: 13.7 (µM), S9 metabolic activation: without S9, exposure time: 24 hours	0.58	1.74	108
concentration: 17.2 (µM), S9 metabolic activation: with S9, exposure time: 3-4 hours	0.19 ± 0.014	1.46	126 ± 20
concentration: 17.2 (µM), S9 metabolic activation: without S9, exposure time: 24 hours	0.46	1.74	123
concentration: 21.5 (µM), S9 metabolic activation: with S9, exposure time: 3-4 hours	0.33 ± 0.042	1.29 ± 0.042	108 ± 25
concentration: 21.5 (µM), S9 metabolic activation: without S9, exposure time: 24 hours	0.54	2.38	116
concentration: 26.8 (µM), S9 metabolic activation: with S9, exposure time: 3-4 hours	0.29 ± 0.071	2.74 ± 1.6	93.3 ± 41
concentration: 26.8 (µM), S9 metabolic activation: without S9, exposure time: 24 hours	0.78	1.92	129
concentration: 33.6 (µM), S9 metabolic activation: with S9, exposure time: 3-4 hours	0.22 ± 0.2	4.24 ± 3.7	90.1 ± 23
concentration: 33.6 (µM), S9 metabolic activation: without S9, exposure time: 24 hours	1.06	2.6	112
concentration: 41.9 (µM), S9 metabolic activation: with S9, exposure time: 3-4 hours	0.41 ± 0.3	3.93 ± 4.4	97.9 ± 44
concentration: 41.9 (µM), S9 metabolic activation: without S9, exposure time: 24 hours	0.58	1.78	122
concentration: 52.4 (µM), S9 metabolic activation: with S9, exposure time: 3-4 hours	0.39 ± 0.41	6.29 ± 6.7	101 ± 29
concentration: 52.4 (µM), S9 metabolic activation: without S9, exposure time: 24 hours	0.7	2.22	124
concentration: 65.5 (µM), S9 metabolic activation: with S9, exposure time: 3-4 hours	0.27 ± 0.13	2.48 ± 2.1	86.6 ± 31
concentration: 65.5 (µM), S9 metabolic activation: without S9, exposure time: 24 hours	0.7	2.24	111
concentration: 81.9 (µM), S9 metabolic activation: with S9, exposure time: 3-4 hours	0.29 ± 0.071	3.57 ± 3.1	101 ± 29
concentration: 81.9 (µM), S9 metabolic activation: without S9, exposure time: 24 hours	0.62	2.24	118
concentration: 102 (µM), S9 metabolic activation: with S9, exposure time: 3-4 hours	0.21 ± 0.042	2.34 ± 1.3	100 ± 41
concentration: 102 (µM), S9 metabolic activation: without S9, exposure time: 24 hours	0.86	2.08	124
concentration: 128 (µM), S9 metabolic activation: with S9, exposure time: 3-4 hours	0.23 ± 0.071	1.99 ± 1	115 ± 54
concentration: 128 (µM), S9 metabolic activation: without S9, exposure time: 24 hours	0.72	2.3	76
concentration: 160 (µM), S9 metabolic activation: with S9, exposure time: 3-4 hours	0.29 ± 0.042	2.14 ± 1.5	124 ± 63
concentration: 160 (µM), S9 metabolic activation: without S9, exposure time: 24 hours	1.22	4.04	114
concentration: 200 (µM), S9 metabolic activation: with S9, exposure time: 3-4 hours	0.34 ± 0.11	2.39 ± 1.5	124 ± 46
concentration: 200 (µM), S9 metabolic activation: without S9, exposure time: 24 hours	1.3	3.82	114
